About 5,700 (2.6%) of roughly 220,000 compounds were called active. Inconclusive means that the source gave no clear call. Such entries were picked first, then a sample of the others. Calls follow the shape of the dose curve; as a rule, active = well fitted inhibition curve with a large enough effect; inconclusive = small, poorly fitted or top-dose-only effect; inactive = no such curve, though single readings can be large or run the other way. Potencies of inconclusive entries are doubtful fits and often do not repeat.
target: Lysine-specific demethylase 5B (Homo sapiens) (UniProt Q9UGL1); experiment: Primary screen for KDM5B Histone Demethylases FDH-coupled qHTS; settings: FDH-coupled NADH fluorescence (FDH is formaldehyde dehydrogenase); activity change, negative = inhibition: at 57.7 µM (top of the series) unless noted; also: nearly all actives have a fitted effect of over 70% in size; as to activity change, negative = inhibition: 0% is about no effect
UniProt Q9UGL1, sequence (Q9UGL1 whole entry, looked up): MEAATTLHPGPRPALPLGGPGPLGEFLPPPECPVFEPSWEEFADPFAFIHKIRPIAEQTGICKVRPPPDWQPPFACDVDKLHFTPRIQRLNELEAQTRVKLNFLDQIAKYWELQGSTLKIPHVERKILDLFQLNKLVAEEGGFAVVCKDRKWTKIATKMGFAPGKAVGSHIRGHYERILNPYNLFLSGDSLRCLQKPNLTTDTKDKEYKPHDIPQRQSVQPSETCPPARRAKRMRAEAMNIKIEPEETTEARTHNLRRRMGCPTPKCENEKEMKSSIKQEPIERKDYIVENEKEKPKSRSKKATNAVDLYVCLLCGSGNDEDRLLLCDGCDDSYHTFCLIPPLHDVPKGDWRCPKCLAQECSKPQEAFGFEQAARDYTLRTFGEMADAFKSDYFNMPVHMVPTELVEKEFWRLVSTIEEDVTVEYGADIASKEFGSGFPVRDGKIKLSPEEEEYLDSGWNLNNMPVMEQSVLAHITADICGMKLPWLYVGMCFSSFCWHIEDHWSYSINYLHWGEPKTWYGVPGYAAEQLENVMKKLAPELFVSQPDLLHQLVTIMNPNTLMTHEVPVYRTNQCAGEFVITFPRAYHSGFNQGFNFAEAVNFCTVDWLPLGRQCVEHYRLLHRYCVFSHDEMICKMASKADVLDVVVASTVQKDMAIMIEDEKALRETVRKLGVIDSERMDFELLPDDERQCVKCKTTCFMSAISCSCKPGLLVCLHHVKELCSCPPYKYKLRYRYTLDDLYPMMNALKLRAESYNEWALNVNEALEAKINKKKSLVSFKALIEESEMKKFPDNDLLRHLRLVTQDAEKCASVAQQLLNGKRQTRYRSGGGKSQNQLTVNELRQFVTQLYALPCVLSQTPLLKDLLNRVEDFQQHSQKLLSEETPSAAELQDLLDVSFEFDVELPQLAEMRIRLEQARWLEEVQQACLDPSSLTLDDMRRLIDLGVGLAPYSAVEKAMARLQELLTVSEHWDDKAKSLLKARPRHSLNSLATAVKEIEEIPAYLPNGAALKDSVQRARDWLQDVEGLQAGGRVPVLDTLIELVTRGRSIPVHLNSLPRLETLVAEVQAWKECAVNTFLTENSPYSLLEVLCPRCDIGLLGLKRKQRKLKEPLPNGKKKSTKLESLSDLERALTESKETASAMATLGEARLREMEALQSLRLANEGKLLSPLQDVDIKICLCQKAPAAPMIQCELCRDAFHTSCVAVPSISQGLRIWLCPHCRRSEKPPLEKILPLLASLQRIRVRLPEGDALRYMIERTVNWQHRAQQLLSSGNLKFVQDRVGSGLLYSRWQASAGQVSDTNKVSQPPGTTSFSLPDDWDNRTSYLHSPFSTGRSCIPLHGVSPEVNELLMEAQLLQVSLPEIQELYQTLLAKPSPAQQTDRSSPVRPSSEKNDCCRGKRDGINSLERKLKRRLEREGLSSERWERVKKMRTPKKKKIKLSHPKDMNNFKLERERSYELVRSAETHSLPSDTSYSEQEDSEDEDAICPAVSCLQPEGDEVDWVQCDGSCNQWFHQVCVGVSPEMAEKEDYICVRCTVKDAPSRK
Summary of the method: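 Compound dilutions met 200 nM (final) KDM5BΔAP for 10 min at room temperature before substrate addition. The substrate mix held 12.5 µM H3K4me3 with cofactors 25 µM α-ketoglutarate and 50 µM Fe²⁺. NADH signal gain over 30 min defined activity.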
Potency is read from the fitted curve at half-maximal effect; tags tell the direction and shape of the fitted curve.

Row | Structure (SMILES) | Potency | activity change, negative = inhibition
1 | O=C(NC1CCCCC1)c1ccc(Cn2c(SCc3ccccc3F)nc3cccnc32)cc1 | inconclusive: 31.6 µM [inhibitor, partial curve, poor fit] | –
2 | CCOC(=O)c1ccc(NC(=O)c2c(-c3c(F)cccc3Cl)noc2C)cc1 | inconclusive: 4.47 µM [inhibitor, partial curve, poor fit] | –
3 | CCC(=O)N1CCc2cc(Br)cc(S(=O)(=O)N3CCC(C(=O)NCCCOC(C)C)CC3)c21 | – | inconclusive: -32.7% [inhibitor]
4 | CCOc1ccc(NC(=O)c2ccc(NC(=O)N3CCSc4ncccc43)cc2)cc1 | inconclusive: 35.5 µM [inhibitor, partial curve, poor fit] | –
5 | Cc1ccc2oc(C(=O)N[C@H]3COC[C@H]3Cc3cc(C)no3)c(C)c2c1 | active: 15.8 µM | –
6 | Cc1ccc2nc(CO[C@H]3CN(C4CCCCC4)C[C@H]3F)[nH]c2c1 | inconclusive: 31.6 µM [inhibitor, partial curve] | –
7 | CC(=O)c1ccc(N2CCN(c3ncnc4c3c(-c3ccccc3)cn4-c3cccc(C)c3)CC2)cc1 | inconclusive: 0.794 µM [inhibitor, partial curve, poor fit] | –
8 | COc1ccc(C(F)(F)F)cc1NC(=O)c1sc2nc(-c3cccs3)ccc2c1N | inconclusive: 15.8 µM [inhibitor, partial curve, poor fit] | –
9 | C=CCNC(=O)c1ccccc1NC(=O)/C=C/c1cccc2ccccc12 | inconclusive: 28.2 µM [inhibitor, single point] | –
10 | Cc1ccc(CN2CCC(CNC(=O)Nc3cn(CC(C)C)c(=O)c4ccccc34)C2)cc1 (configuration not stated) | inconclusive: 25.1 µM [inhibitor, partial curve, poor fit] | –
11 | CC(C)Nc1nnc(SCc2nc(-c3ccc(F)cc3)no2)s1 | – | inactive: 6.95%
12 | Cc1ccn2c(=O)c(C(=O)O)cnc2c1 | inconclusive: 25.1 µM [inhibitor, partial curve, poor fit] | –
13 | COc1ccc(-c2nc3c(c(=O)[nH]2)CCN(C(=O)COc2ccccc2C)C3)cc1 | active: 25.1 µM | –
14 | FC(F)(F)c1cccc(-c2csc(-c3ccncc3)n2)c1 | inconclusive: 39.8 µM [inhibitor, single point] | –
15 | COc1ccccc1CNC(=O)C1CCCN(c2nc3ccccc3n3cccc23)C1 (configuration not stated) | inconclusive: 35.5 µM [inhibitor, partial curve, poor fit] | –
16 | Cc1ccc2nc(C(=O)NCCc3nc(Cc4ccccc4)no3)cn2c1 | inconclusive: 28.2 µM [inhibitor, partial curve, poor fit] | –
17 | Cc1ccc(SCc2nc(-c3ccc(C(=O)NCc4cccnc4)cc3)oc2C)cc1 | – | inactive: -11%
18 | COCCN1CCCN(C(=O)c2cccc(F)c2)c2ccccc21 | inconclusive: 17.8 µM [inhibitor, partial curve, poor fit] | –
19 | O=C(C1CC1)N1CCc2cc(Br)cc(S(=O)(=O)N3CCN(c4cccc(C(F)(F)F)c4)CC3)c21 | inconclusive: 35.5 µM [inhibitor, single point] | –
20 | COc1ccc(NC(=O)c2cc(-c3ccc[nH]3)n[nH]2)cc1 | – | inactive: 3.44%
21 | O=C(Nc1ccc(Oc2ccccc2)cc1)O[C@@H]1CO[C@H]2[C@@H]1OC[C@@H]2Nc1nccc(-c2cccs2)n1 | – | inactive: -17.8%
22 | Cn1c(=O)c2nc(SCCC(=O)O)n(C)c2n(C)c1=O | – | inactive: 9.94%
23 | O=C(CSc1nc2ccccc2[nH]1)N1N=C(c2cccs2)CC1c1ccco1 (configuration not stated) | inconclusive: 25.1 µM [inhibitor, single point] | –

Row | Structure (SMILES) | Potency | activity change, negative = inhibition
24 | CCCOc1nc2ccccc2nc1N1CCC(C(=O)Nc2cccc(F)c2)CC1 | inconclusive: 28.2 µM [inhibitor, partial curve, poor fit] | –
25 | CCN(CC)C(=S)Nc1ccc(C(=O)O)cc1 | – | inactive: 9.15%
26 | CC(C)c1ccc(C(=O)NC(=S)NCCCO)cc1 | – | inactive: 15.6%
27 | CC1=C(c2ccc(C)c(C)c2)S(=O)(=O)N(Cc2ccc(C(=O)NCc3cccc(C)c3)cc2)C1=O | inconclusive: 1.78 µM [inhibitor, partial curve, poor fit] | –
28 | CS(=O)(=O)Nc1ccccc1NC(=O)Cc1ccc2c(c1)CCC2 | inconclusive: 28.2 µM [inhibitor, partial curve, poor fit] | –
29 | Cc1ccccc1/C=C(/C#N)C(=O)c1c(C)[nH]c2ccccc12 | inconclusive: 39.8 µM [inhibitor, single point] | –
30 | COc1cccc(NC(=O)c2ccnc(-c3nnc4ccc(N(C)C)nn34)c2)c1 | inconclusive: 56.2 µM [inhibitor, single point] | –
31 | Cc1c(CN2CCCC23CCN(c2ccc(C(F)(F)F)cn2)CC3)cc(C#N)n1C | inconclusive: 14.1 µM [inhibitor, partial curve, poor fit] | –
32 | COc1ccc(C(=O)NCC(c2cccnc2)N2CCc3ccccc32)cc1 (configuration not stated) | – | inconclusive: -30.5% [inhibitor]
33 | CCOC(=O)c1c(N)n(-c2ccc(C)c(Cl)c2)c2nc3ccccc3nc12 | – | inactive: -91.7%
34 | Cc1ccc(CN2C(=O)C3(c4ccccc42)N(c2ccc(F)c(Cl)c2)C(=O)CS3(=O)=O)cc1 (configuration not stated) | – | inactive: -0.744%
35 | Cc1ccc(Nc2c(-c3c[nH]c4ccccc34)nc3cc(C)ccn23)cc1 | inconclusive: 15.8 µM [inhibitor, partial curve, poor fit] | –
36 | O=C(c1ccccc1F)N1CCC(N2CC3CCCN3C2=O)CC1 (configuration not stated) | – | inactive: -13.2% [at 86.2 µM]
37 | Cc1cc(C(=O)N2CC(F)(F)C[C@H]2c2nnc(C3CC3)o2)c(C)o1 | inconclusive: 14.1 µM [inhibitor, partial curve, poor fit] | –
38 | COc1cc(OC)c(OC)cc1/C=C/c1nc2cc3ccccc3cc2c(=O)n1-c1ccc(Cl)cc1 | – | inconclusive: -30.9% [inhibitor]
39 | CCC(C)[C@@H](NC(=O)NCc1ccc(C)cc1)C(=O)OC (some centres not stated) | – | inactive: 16.4%
40 | CN(CCc1ccccc1)C(=O)C1CCCN(C2CCN(C(=O)C3CC3)CC2)C1 (configuration not stated) | inconclusive: 22.4 µM [inhibitor, single point] | –
41 | CC#CCn1cc2c3c(cccc31)[C@H](CC(C)C)N[C@H](C(=O)NCc1ccccc1OC)C2 | inconclusive: 35.5 µM [inhibitor, single point] | –
42 | Cn1cccc1CN1CCCCCCNC(=O)[C@@H]2CCC[C@@H]21 | inconclusive: 14.1 µM [inhibitor, partial curve] | –
43 | Cc1ccccc1C(=O)NCc1coc(-c2cccs2)n1 | inconclusive: 22.4 µM [inhibitor, single point] | –
44 | CCOC(=O)Cc1ccc(NC(=O)N2CCOc3ccc(C)cc32)cc1 | inconclusive: 39.8 µM [inhibitor, single point] | –
45 | CC1(c2ccccc2)N(Cc2ccc(O)cc2)C(=O)OC12CCN(C(=O)c1cccnc1)CC2 (configuration not stated) | – | inactive: 17.2%
46 | CCOC(=O)c1sc(NC(=O)COc2c(C)cc(C)cc2C)nc1C | – | inactive: 10.8%

Row | Structure (SMILES) | Potency | activity change, negative = inhibition
47 | c1ccc(-c2nc(CSc3nnnn3C3CCCC3)co2)cc1 | – | inactive: 2.71%
48 | NCCCC(=O)N1CCCCC1c1nnc2n1CCNC2 (configuration not stated) | inconclusive: 39.8 µM [inhibitor, partial curve] | –
49 | Cc1ccc(-c2c(-c3cn4ccc(C)cc4n3)c(=O)n(C)c(=O)n2C)cc1 | inconclusive: 22.4 µM [inhibitor, single point] | –
50 | CCCCN(C)CCCNC(=O)C1CCN(c2nc3ccc(CC)cc3s2)CC1 | inconclusive: 22.4 µM [inhibitor, single point] | –
51 | CC(C)c1ccc(NC(=O)C2CCCN(S(=O)(=O)c3cccc4cccnc34)C2)cc1 (configuration not stated) | inconclusive: 15.8 µM [inhibitor, partial curve, poor fit] | –
52 | CN1CC2(CCN(Cc3ccccc3)CC2)CC1C(=O)N1CCOCC1 (configuration not stated) | inconclusive: 28.2 µM [inhibitor, partial curve, poor fit] | –
53 | O=C(NCc1nnc2n1C(C(=O)O)CC2)c1ccc2c(c1)OCO2 (configuration not stated) | inconclusive: 50.1 µM [inhibitor, partial curve] | –
54 | CC(C(=O)NCCc1ccccc1)N1c2cccc3cccc(c23)S1(=O)=O (configuration not stated) | inconclusive: 31.6 µM [inhibitor, partial curve, poor fit] | –
55 | COc1ccc(-c2nnc(SCC(=O)Nc3cc(OC)cc(OC)c3)[nH]c2=O)cc1 | – | inactive: -2.65%
56 | Cc1ccc(CNC(=O)C2CCN(c3cc(C(F)(F)F)ncn3)CC2)cc1 | – | inactive: -18.4%
57 | N#Cc1ccc(CN2CC(CNC(=O)c3ccccc3)C3(C2)CN(c2ccccc2)C3)cc1 (configuration not stated) | inconclusive: 35.5 µM [inhibitor, single point] | –
58 | CCc1ccc(NC(=O)COc2cccc(-c3nnc4n3CCCC4)c2)cc1 | – | inactive: 0.82%
59 | O=C(c1n[nH]c2ccccc12)N1CCC(Cc2nc(-c3ccccc3)n[nH]2)CC1 | inconclusive: 22.4 µM [inhibitor, single point] | –
60 | CCC(=O)NCc1nnc2c(-c3nc(C(C)C)no3)cccn12 | inconclusive: 25.1 µM [inhibitor, partial curve, poor fit] | –
61 | C#CCN(C)C(=O)CC1COc2ccc(C(=O)NCCOC)cc2N1C (configuration not stated) | active: 31.6 µM | –
62 | O=C(Nc1ccc(F)cc1)c1ccn2cncc2c1 | active: 35.5 µM | –
63 | CCc1ccc2oc(C(=O)Nc3ccc(C)cc3C)cc(=O)c2c1 | – | inactive: 11.3%
64 | CC(C(=O)NCc1ccc(F)cc1F)C1CCOCC1 (configuration not stated) | – | inactive: -22.7%
65 | O=C(NCc1ccc(Cl)cc1)c1cnc(N2CCCCC2)c2ccccc12 | inconclusive: 39.8 µM [inhibitor, partial curve, poor fit] | –
66 | Oc1ccc(Cl)cc1C=Nc1ccc(Cl)cc1C(F)(F)F | – | inactive: -8.81%
67 | O=C(O)c1ccc(-c2ccc(Cl)cc2)s1 | inconclusive: 25.1 µM [inhibitor, partial curve, poor fit] | –
